Measured values taken from the supplement of paper PMC12230231.
± gives the standard deviation of the averaged measurements. Restriction of a single-cycle SIVsab GFP reporter by TRIM5α v1-loop variants in CRFK cells. Human variants: read share among cells still uninfected after two challenges over input, higher = gained restriction. Rhesus variants: share among infected cells over input, higher = lost restriction. Reporter dose not given per row. No active / inactive call per row; the paper calls a change when both replicates lie above its controls (mean + 2 SD of stop or wild-type variants, or the top frameshift score). Residues outside the varied loop are taken from Swiss-Prot. The paper reads the human single-substitution scores as noise; they and the rhesus combinations repeat poorly (rank correlation 0.3 to 0.4), indel scores repeat only for the top variants, rhesus substitutions well (0.9).

Each sequence was assayed on SIVsab (simian immunodeficiency virus of sabaeus monkeys), single-cycle GFP reporter, in CRFK cells (assay: enrichment among uninfected cells over input (fold); higher = stronger restriction). Conditions: library: human / rhesus combinations.
Experimental: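 Pools of CRFK cells expressing variants of the TRIM5α v1 loop were challenged with the single-cycle reporter, sorted by GFP and sequenced; mean of two replicates.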
Sequence “MASGILVNVKEEVTCPICLELLTQPLSLDCGHSFCQACLTANHKKSMLDKGESSCPVCRISYQPENIRPNRHVANIVEKLREVKLSPEGQKVDHCARHGEKLLLFCQEDGKVICWLCERSQEHRGHHTFLTEEVAREYQVKLQAALEMLRQKQQEAEELEADIREEKASWKTQIQYDKTNVLADFEQLRDILDWEESNELQNLEKEEEDILKSLTNSETEMVQQTQSLRELISDLEHRLQGSVMELLQGVDGVIKRTENVTLKKPETFPKNQRRVFRAPDLKGMLEVFRELTDVRRYWVDVTVAPNNISCAVISEDKRQVSSPKPQIIYGAPGTLYTFQTFTNFNYCTGILGSQSITSGKHYWEVDVSKKTAWILGVCAGFQPDAMCNIEKNENYQPKYGYWVIGLEEGVKCSAFQDSSFHTPSVPFIVPLSVIICPDRVGVFLDYEACTVSFFNITNHGFLIYKFSHCSFSQPVFPYLNPRKCGVPMTLCSPSS [human TRIM5α, 330-340 = GAPGTLYTFQTFT]” has an enrichment of 0.116 ± 0.021. In the case of “MASGILVNVKEEVTCPICLELLTQPLSLDCGHSFCQACLTANHKKSMLDKGESSCPVCRISYQPENIRPNRHVANIVEKLREVKLSPEGQKVDHCARHGEKLLLFCQEDGKVICWLCERSQEHRGHHTFLTEEVAREYQVKLQAALEMLRQKQQEAEELEADIREEKASWKTQIQYDKTNVLADFEQLRDILDWEESNELQNLEKEEEDILKSLTNSETEMVQQTQSLRELISDLEHRLQGSVMELLQGVDGVIKRTENVTLKKPETFPKNQRRVFRAPDLKGMLEVFRELTDVRRYWVDVTVAPNNISCAVISEDKRQVSSPKPQIIYQARGTLFQTFVNFNYCTGILGSQSITSGKHYWEVDVSKKTAWILGVCAGFQPDAMCNIEKNENYQPKYGYWVIGLEEGVKCSAFQDSSFHTPSVPFIVPLSVIICPDRVGVFLDYEACTVSFFNITNHGFLIYKFSHCSFSQPVFPYLNPRKCGVPMTLCSPSS [human TRIM5α, 330-340 = QARGTLFQTFV]”, the enrichment is reported as 1.46 ± 1.7. “MASGILVNVKEEVTCPICLELLTQPLSLDCGHSFCQACLTANHKKSMLDKGESSCPVCRISYQPENIRPNRHVANIVEKLREVKLSPEGQKVDHCARHGEKLLLFCQEDGKVICWLCERSQEHRGHHTFLTEEVAREYQVKLQAALEMLRQKQQEAEELEADIREEKASWKTQIQYDKTNVLADFEQLRDILDWEESNELQNLEKEEEDILKSLTNSETEMVQQTQSLRELISDLEHRLQGSVMELLQGVDGVIKRTENVTLKKPETFPKNQRRVFRAPDLKGMLEVFRELTDVRRYWVDVTVAPNNISCAVISEDKRQVSSPKPQIIYGAPGTRYTFQSLVNFNYCTGILGSQSITSGKHYWEVDVSKKTAWILGVCAGFQPDAMCNIEKNENYQPKYGYWVIGLEEGVKCSAFQDSSFHTPSVPFIVPLSVIICPDRVGVFLDYEACTVSFFNITNHGFLIYKFSHCSFSQPVFPYLNPRKCGVPMTLCSPSS [human TRIM5α, 330-340 = GAPGTRYTFQSLV]” showed an enrichment of 0.258 ± 0.11.

Same assay, conditions: library: insertions and deletions
For “MASGILVNVKEEVTCPICLELLTQPLSLDCGHSFCQACLTANHKKSMLDKGESSCPVCRISYQPENIRPNRHVANIVEKLREVKLSPEGQKVDHCARHGEKLLLFCQEDGKVICWLCERSQEHRGHHTFLTEEVAREYQVKLQAALEMLRQKQQEAEELEADIREEKASWKTQIQYDKTNVLADFEQLRDILDWEESNELQNLEKEEEDILKSLTNSETEMVQQTQSLRELISDLEHRLQGSVMELLQGVDGVIKRTENVTLKKPETFPKNQRRVFRAPDLKGMLEVFRELTDVRRYWVDVTVAPNNISCAVISEDKRQVSSPKPQIIYGARGTGARGTRYQTFVNFNYCTGILGSQSITSGKHYWEVDVSKKTAWILGVCAGFQPDAMCNIEKNENYQPKYGYWVIGLEEGVKCSAFQDSSFHTPSVPFIVPLSVIICPDRVGVFLDYEACTVSFFNITNHGFLIYKFSHCSFSQPVFPYLNPRKCGVPMTLCSPSS [human TRIM5α, 5-codon duplication at 330]”, the enrichment was 0.739 ± 0.46. With “MASGILVNVKEEVTCPICLELLTQPLSLDCGHSFCQACLTANHKKSMLDKGESSCPVCRISYQPENIRPNRHVANIVEKLREVKLSPEGQKVDHCARHGEKLLLFCQEDGKVICWLCERSQEHRGHHTFLTEEVAREYQVKLQAALEMLRQKQQEAEELEADIREEKASWKTQIQYDKTNVLADFEQLRDILDWEESNELQNLEKEEEDILKSLTNSETEMVQQTQSLRELISDLEHRLQGSVMELLQGVDGVIKRTENVTLKKPETFPKNQRRVFRAPDLKGMLEVFRELTDVRRYWVDVTVAPNNISCAVISEDKRQVSSPKPQTRYQTFVNFNYCTGILGSQSITSGKHYWEVDVSKKTAWILGVCAGFQPDAMCNIEKNENYQPKYGYWVIGLEEGVKCSAFQDSSFHTPSVPFIVPLSVIICPDRVGVFLDYEACTVSFFNITNHGFLIYKFSHCSFSQPVFPYLNPRKCGVPMTLCSPSS [human TRIM5α, 7-codon deletion at 327]” the enrichment was 0.691 ± 0.3. “MASGILVNVKEEVTCPICLELLTQPLSLDCGHSFCQACLTANHKKSMLDKGESSCPVCRISYQPENIRPNRHVANIVEKLREVKLSPEGQKVDHCARHGEKLLLFCQEDGKVICWLCERSQEHRGHHTFLTEEVAREYQVKLQAALEMLRQKQQEAEELEADIREEKASWKTQIQYDKTNVLADFEQLRDILDWEESNELQNLEKEEEDILKSLTNSETEMVQQTQSLRELISDLEHRLQGSVMELLQGVDGVIKRTENVTLKKPETFPKNQRRVFRAPDLKGMLEVFRELTDVRRYWVDVTVAPNNISCAVISEDKRQVSSPKPQIIYGARGTRYQTGARGTRYQTFVNFNYCTGILGSQSITSGKHYWEVDVSKKTAWILGVCAGFQPDAMCNIEKNENYQPKYGYWVIGLEEGVKCSAFQDSSFHTPSVPFIVPLSVIICPDRVGVFLDYEACTVSFFNITNHGFLIYKFSHCSFSQPVFPYLNPRKCGVPMTLCSPSS [human TRIM5α, 9-codon duplication at 330]” was tested, and the enrichment was 0.304 ± 0.21. “MASGILVNVKEEVTCPICLELLTQPLSLDCGHSFCQACLTANHKKSMLDKGESSCPVCRISYQPENIRPNRHVANIVEKLREVKLSPEGQKVDHCARHGEKLLLFCQEDGKVICWLCERSQEHRGHHTFLTEEVAREYQVKLQAALEMLRQKQQEAEELEADIREEKASWKTQIQYDKTNVLADFEQLRDILDWEESNELQNLEKEEEDILKSLTNSETEMVQQTQSLRELISDLEHRLQGSVMELLQGVDGVIKRTENVTLKKPETFPKNQRRVFRAPDLKGMLEVFRELTDVRRYWVDVTVAPNNISCAVISEDKRQVSSPKPQIIYGARGTRYQTFVNFNYCTGILNYCTGILGSQSITSGKHYWEVDVSKKTAWILGVCAGFQPDAMCNIEKNENYQPKYGYWVIGLEEGVKCSAFQDSSFHTPSVPFIVPLSVIICPDRVGVFLDYEACTVSFFNITNHGFLIYKFSHCSFSQPVFPYLNPRKCGVPMTLCSPSS [human TRIM5α, 7-codon duplication at 343]” was tested, and the enrichment was 1.06 ± 0.51. “MASGILVNVKEEVTCPICLELLTQPLSLDCGHSFCQACLTANHKKSMLDKGESSCPVCRISYQPENIRPNRHVANIVEKLREVKLSPEGQKVDHCARHGEKLLLFCQEDGKVICWLCERSQEHRGHHTFLTEEVAREYQVKLQAALEMLRQKQQEAEELEADIREEKASWKTQIQYDKTNVLADFEQLRDILDWEESNELQNLEKEEEDILKSLTNSETEMVQQTQSLRELISDLEHRLQGSVMELLQGVDGVIKRTENVTLKKPETFPKNQRRVFRAPDLKGMLEVFRELTDVRRYWVDVTVAPNNISCAVISEDKRQVSSPKPQIIYGARGTRYQTFVNFNVNFNYCTGILGSQSITSGKHYWEVDVSKKTAWILGVCAGFQPDAMCNIEKNENYQPKYGYWVIGLEEGVKCSAFQDSSFHTPSVPFIVPLSVIICPDRVGVFLDYEACTVSFFNITNHGFLIYKFSHCSFSQPVFPYLNPRKCGVPMTLCSPSS [human TRIM5α, 4-codon duplication at 340]” was tested, and the enrichment was 0.819 ± 0.69. Sequence “MASGILVNVKEEVTCPICLELLTQPLSLDCGHSFCQACLTANHKKSMLDKGESSCPVCRISYQPENIRPNRHVANIVEKLREVKLSPEGQKVDHCARHGEKLLLFCQEDGKVICWLCERSQEHRGHHTFLTEEVAREYQVKLQAALEMLRQKQQEAEELEADIREEKASWKTQIQYDKTNVLADFEQLRDILDWEESNELQNLEKEEEDILKSLTNSETEMVQQTQSLRELISDLEHRLQGSVMELLQGVDGVIKRTENVTLKKPETFPKNQRRVFRAPDLKGMLEVFRELTDVRRYWVDVTVAPNNISCAVISEDKRQVSSPKPQIIYGAQTFVNFNYCTGILGSQSITSGKHYWEVDVSKKTAWILGVCAGFQPDAMCNIEKNENYQPKYGYWVIGLEEGVKCSAFQDSSFHTPSVPFIVPLSVIICPDRVGVFLDYEACTVSFFNITNHGFLIYKFSHCSFSQPVFPYLNPRKCGVPMTLCSPSS [human TRIM5α, 5-codon deletion at 332]” has an enrichment of 0.926 ± 0.56. Work on “MASGILVNVKEEVTCPICLELLTQPLSLDCGHSFCQACLTANHKKSMLDKGESSCPVCRISYQPENIRPNRHVANIVEKLREVKLSPEGQKVDHCARHGEKLLLFCQEDGKVICWLCERSQEHRGHHTFLTEEVAREYQVKLQAALEMLRQKQQEAEELEADIREEKASWKTQIQYDKTNVLADFEQLRDILDWEESNELQNLEKEEEDILKSLTNSETEMVQQTQSLRELISDLEHRLQGSVMELLQGVDGVIKRTENVTLKKPETFPKNQRRVFRAPDLKGMLEVFRELTDVRRYWVDVTVAPNNISCAVISEDKRQVSSPKIYGARGTRYQTFVNFNYCTGILGSQSITSGKHYWEVDVSKKTAWILGVCAGFQPDAMCNIEKNENYQPKYGYWVIGLEEGVKCSAFQDSSFHTPSVPFIVPLSVIICPDRVGVFLDYEACTVSFFNITNHGFLIYKFSHCSFSQPVFPYLNPRKCGVPMTLCSPSS [human TRIM5α, 3-codon deletion at 325]” yielded an enrichment of 1.16 ± 0.9. In the case of “MASGILVNVKEEVTCPICLELLTQPLSLDCGHSFCQACLTANHKKSMLDKGESSCPVCRISYQPENIRPNRHVANIVEKLREVKLSPEGQKVDHCARHGEKLLLFCQEDGKVICWLCERSQEHRGHHTFLTEEVAREYQVKLQAALEMLRQKQQEAEELEADIREEKASWKTQIQYDKTNVLADFEQLRDILDWEESNELQNLEKEEEDILKSLTNSETEMVQQTQSLRELISDLEHRLQGSVMELLQGVDGVIKRTENVTLKKPETFPKNQRRVFRAPDLKGMLEVFRELTDVRRYWVDVTVAPNNISCAVISEDKRQVSSPKPQIIYGARGTRYFVNFNYCTGILGSQSITSGKHYWEVDVSKKTAWILGVCAGFQPDAMCNIEKNENYQPKYGYWVIGLEEGVKCSAFQDSSFHTPSVPFIVPLSVIICPDRVGVFLDYEACTVSFFNITNHGFLIYKFSHCSFSQPVFPYLNPRKCGVPMTLCSPSS [human TRIM5α, 2-codon deletion at 337]”, the enrichment is reported as 0.525 ± 0.44. “MASGILVNVKEEVTCPICLELLTQPLSLDCGHSFCQACLTANHKKSMLDKGESSCPVCRISYQPENIRPNRHVANIVEKLREVKLSPEGQKVDHCARHGEKLLLFCQEDGKVICWLCERSQEHRGHHTFLTEEVAREYQVKLQAALEMLRQKQQEAEELEADIREEKASWKTQIQYDKTNVLADFEQLRDILDWEESNELQNLEKEEEDILKSLTNSETEMVQQTQSLRELISDLEHRLQGSVMELLQGVDGVIKRTENVTLKKPETFPKNQRRVFRAPDLKGMLEVFRELTDVRRYWVDVTVAPNNISCAVISEDKRQVSSPKPQIIYGARGTRYQTFVNILGSQSITSGKHYWEVDVSKKTAWILGVCAGFQPDAMCNIEKNENYQPKYGYWVIGLEEGVKCSAFQDSSFHTPSVPFIVPLSVIICPDRVGVFLDYEACTVSFFNITNHGFLIYKFSHCSFSQPVFPYLNPRKCGVPMTLCSPSS [human TRIM5α, 6-codon deletion at 342]” was tested, and the enrichment was 2.13 ± 1.6.
